# This is one part of the list.
# Experiments:
# Assay in all cases: glycan array binding signal (z-score within array); higher = stronger binding
# Conditions in all cases: glycan notation: IUPAC condensed, linker removed; mutation: R120K
# Gal(a1-3)GalNAc = molecular target: Gal(a1-3)GalNAc
# Procedure, shortened: (§1)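 The binding signal is a Z-score computed within each array and averaged over linkers. Arrays of the same protein sequence at different concentrations or buffers were also averaged together. Data originate from 3228 arrays in the Consortium for Functional Glycomics database, kept only where the protein sequence was available.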
# [1] = molecular target: Gal(a1-3)[Gal(a1-4)]Gal(b1-4)GlcNAc
# Procedure, shortened: as §1
# [2] = molecular target: Gal(a1-4)Gal(b1-3)GlcNAc(b1-2)Man(a1-3)[Gal(a1-4)Gal(b1-3)GlcNAc(b1-2)Man(a1-6)]Man(b1-4)GlcNAc(b1-4)GlcNAc
# Procedure, shortened: as §1
# Gal(a1-4)Gal(b1-4)Glc = molecular target: Gal(a1-4)Gal(b1-4)Glc
# Procedure, shortened: as §1
# Gal(a1-4)Gal(b1-4)GlcNAc = molecular target: Gal(a1-4)Gal(b1-4)GlcNAc
# Procedure, shortened: as §1
# [3] = molecular target: Gal(a1-4)Gal(b1-4)GlcNAc(b1-2)Man(a1-3)[Gal(a1-4)Gal(b1-4)GlcNAc(b1-2)Man(a1-6)]Man(b1-4)GlcNAc(b1-4)GlcNAc
# Procedure, shortened: as §1
# [4] = molecular target: Gal(a1-4)Gal(b1-4)GlcNAc(b1-3)Gal(b1-4)Glc
# Procedure, shortened: as §1
# Gal(a1-4)GlcNAc = molecular target: Gal(a1-4)GlcNAc
# Procedure, shortened: as §1
# Gal(a1-6)Glc = molecular target: Gal(a1-6)Glc
# Procedure, shortened: as §1
# Gal(b1-2)Gal = molecular target: Gal(b1-2)Gal
# Procedure, shortened: as §1
# Gal(b1-3)Gal = molecular target: Gal(b1-3)Gal
# Procedure, shortened: as §1
# Gal(b1-3)Gal(b1-4)GlcNAc = molecular target: Gal(b1-3)Gal(b1-4)GlcNAc
# Procedure, shortened: as §1
# Gal(b1-3)GalNAc = molecular target: Gal(b1-3)GalNAc
# Procedure, shortened: as §1
# [5] = molecular target: Gal(b1-3)GalNAc(a1-3)[Fuc(a1-2)]Gal(b1-4)Glc
# Procedure, shortened: as §1
# [6] = molecular target: Gal(b1-3)GalNAc(a1-3)[Fuc(a1-2)]Gal(b1-4)GlcNAc
# Procedure, shortened: as §1
# Gal(b1-3)GalNAc(b1-3)Gal = molecular target: Gal(b1-3)GalNAc(b1-3)Gal
# Procedure, shortened: as §1
# [7] = molecular target: Gal(b1-3)GalNAc(b1-3)Gal(a1-4)Gal(b1-4)Glc
# Procedure, shortened: as §1
# [8] = molecular target: Gal(b1-3)GalNAc(b1-4)Gal(b1-4)Glc
# Procedure, shortened: as §1
# [9] = molecular target: Gal(b1-3)GalNAc(b1-4)[Neu5Ac(a2-3)]Gal(b1-4)Glc
# Procedure, shortened: as §1
# Gal(b1-3)GlcNAc = molecular target: Gal(b1-3)GlcNAc
# Procedure, shortened: as §1
# [10] = molecular target: Gal(b1-3)GlcNAc(a1-3)Gal(b1-4)GlcNAc
# Procedure, shortened: as §1
# [11] = molecular target: Gal(b1-3)GlcNAc(a1-6)Gal(b1-4)GlcNAc
# Procedure, shortened: as §1
# Gal(b1-3)GlcNAc(b1-2)Man = molecular target: Gal(b1-3)GlcNAc(b1-2)Man
# Procedure, shortened: as §1
# [12] = molecular target: Gal(b1-3)GlcNAc(b1-2)Man(a1-3)[Gal(b1-3)GlcNAc(b1-2)Man(a1-6)]Man(b1-4)GlcNAc(b1-4)GlcNAc
# Procedure, shortened: as §1
# [13] = molecular target: Gal(b1-3)GlcNAc(b1-2)Man(a1-3)[Gal(b1-3)GlcNAc(b1-2)Man(a1-6)]Man(b1-4)GlcNAc(b1-4)[Fuc(a1-6)]GlcNAc
# Procedure, shortened: as §1
# [14] = molecular target: Gal(b1-3)GlcNAc(b1-2)Man(a1-3)[GlcNAc(b1-4)][Gal(b1-3)GlcNAc(b1-2)Man(a1-6)]Man(b1-4)GlcNAc(b1-4)GlcNAc
# Procedure, shortened: as §1
# [15] = molecular target: Gal(b1-3)GlcNAc(b1-2)[Gal(b1-3)GlcNAc(b1-6)]Man(a1-6)[Gal(b1-3)GlcNAc(b1-2)Man(a1-3)]Man(b1-4)GlcNAc(b1-4)GlcNAc
# Procedure, shortened: as §1
# [16] = molecular target: Gal(b1-3)GlcNAc(b1-3)Gal(b1-3)GlcNAc
# Procedure, shortened: as §1
# [17] = molecular target: Gal(b1-3)GlcNAc(b1-3)Gal(b1-4)Glc
# Procedure, shortened: as §1
# [18] = molecular target: Gal(b1-3)GlcNAc(b1-3)Gal(b1-4)GlcNAc
# Procedure, shortened: as §1
# [19] = molecular target: Gal(b1-3)GlcNAc(b1-3)Gal(b1-4)GlcNAc(b1-2)Man(a1-3)[Gal(b1-3)GlcNAc(b1-3)Gal(b1-4)GlcNAc(b1-2)Man(a1-6)]Man(b1-4)GlcNAc(b1-4)GlcNAc
# Procedure, shortened: as §1
# [20] = molecular target: Gal(b1-3)GlcNAc(b1-3)Gal(b1-4)GlcNAc(b1-2)[Gal(b1-3)GlcNAc(b1-3)Gal(b1-4)GlcNAc(b1-6)]Man(a1-6)[Gal(b1-3)GlcNAc(b1-3)Gal(b1-4)GlcNAc(b1-2)Man(a1-3)]Man(b1-4)GlcNAc(b1-4)[Fuc(a1-6)]GlcNAc
# Procedure, shortened: as §1
# [21] = molecular target: Gal(b1-3)GlcNAc(b1-3)Gal(b1-4)GlcNAc(b1-3)Gal(b1-4)GlcNAc(b1-2)[Gal(b1-3)GlcNAc(b1-3)Gal(b1-4)GlcNAc(b1-3)Gal(b1-4)GlcNAc(b1-6)]Man(a1-6)[Gal(b1-3)GlcNAc(b1-3)Gal(b1-4)GlcNAc(b1-3)Gal(b1-4)GlcNAc(b1-2)Man(a1-3)]Man(b1-4)GlcNAc(b1-4)[Fuc(a1-6)]GlcNAc
# Procedure, shortened: as §1
# [22] = molecular target: Gal(b1-3)GlcNAc(b1-3)Gal(b1-4)GlcNAc(b1-6)[Gal(b1-3)GlcNAc(b1-3)]Gal(b1-4)Glc
# Procedure, shortened: as §1
# [23] = molecular target: Gal(b1-3)GlcNAc(b1-3)Gal(b1-4)[Fuc(a1-3)]GlcNAc
# Procedure, shortened: as §1
# [24] = molecular target: Gal(b1-3)GlcNAc(b1-3)Gal(b1-4)[Fuc(a1-3)]GlcNAc(b1-6)[Gal(b1-3)GlcNAc(b1-3)]Gal(b1-4)Glc
# Procedure, shortened: as §1
# [25] = molecular target: Gal(b1-3)GlcNAc(b1-3)GalNAc
# Procedure, shortened: as §1
# [26] = molecular target: Gal(b1-3)GlcNAc(b1-6)Gal(b1-4)GlcNAc
# Procedure, shortened: as §1
binder,measurement,setting,value
"Siglec-9 (Homo sapiens), Q9Y336 (protein) MLLLLLPLLWGRERAEGQTSKLLTMQSSVTVQEGLCVHVPCSFSYPSHGWIYPGPVVHGYWFREGANTDQDAPVATNNPARAVWEETRDRFHLLGDPHTKNCTLSIRDARRSDAGRYFFKMEKGSIKWNYKHHRLSVNVTALTHRPNILIPGTLESGCPQNLTCSVPWACEQGTPPMISWIGTSVSPLDPSTTRSSVLTLIPQPQDHGTSLTCQVTFPGASVTTNKTVHLNVSYPPQNLTMTVFQGDGTVSTVLGNGSSLSLPEGQSLRLVCAVDAVDSNPPARLSLSWRGLTLCPSQPSNPGVLELPWVHLRDAAEFTCRAQNPLGSQQVYLNVSLQSKATSGVTQGVVGGAGATALVFLSFCVIFVVVRSCRKKSARPAAGVGDTGIEDANAVRGSASQGPLTEPWAEDSPPDQPPPASARSSVGEGELQYASLSFQMVKPWDSRGQEATDTEYSEIKIHR",glycan array binding signal (z-score),Gal(a1-3)GalNAc,-0.066
same,glycan array binding signal (z-score),[1],0.327
same,glycan array binding signal (z-score),[2],-0.104
same,glycan array binding signal (z-score),Gal(a1-4)Gal(b1-4)Glc,-0.209
same,glycan array binding signal (z-score),Gal(a1-4)Gal(b1-4)GlcNAc,-0.186
same,glycan array binding signal (z-score),[3],0.834
same,glycan array binding signal (z-score),[4],-0.019
same,glycan array binding signal (z-score),Gal(a1-4)GlcNAc,-0.515
same,glycan array binding signal (z-score),Gal(a1-6)Glc,-0.186
same,glycan array binding signal (z-score),Gal(b1-2)Gal,-0.185
same,glycan array binding signal (z-score),Gal(b1-3)Gal,0.201
same,glycan array binding signal (z-score),Gal(b1-3)Gal(b1-4)GlcNAc,-0.032
same,glycan array binding signal (z-score),Gal(b1-3)GalNAc,-0.322
same,glycan array binding signal (z-score),[5],-0.613
same,glycan array binding signal (z-score),[6],-0.09
same,glycan array binding signal (z-score),Gal(b1-3)GalNAc(b1-3)Gal,-0.547
same,glycan array binding signal (z-score),[7],0.024
same,glycan array binding signal (z-score),[8],0.019
same,glycan array binding signal (z-score),[9],-0.082
same,glycan array binding signal (z-score),Gal(b1-3)GlcNAc,-0.526
same,glycan array binding signal (z-score),[10],-0.475
same,glycan array binding signal (z-score),[11],-0.242
same,glycan array binding signal (z-score),Gal(b1-3)GlcNAc(b1-2)Man,-0.121
same,glycan array binding signal (z-score),[12],-0.172
same,glycan array binding signal (z-score),[13],-0.25
same,glycan array binding signal (z-score),[14],-0.105
same,glycan array binding signal (z-score),[15],0.574
same,glycan array binding signal (z-score),[16],-0.405
same,glycan array binding signal (z-score),[17],-0.499
same,glycan array binding signal (z-score),[18],-0.688
same,glycan array binding signal (z-score),[19],-0.671
same,glycan array binding signal (z-score),[20],0.218
same,glycan array binding signal (z-score),[21],0.24
same,glycan array binding signal (z-score),[22],-0.252
same,glycan array binding signal (z-score),[23],-0.249
same,glycan array binding signal (z-score),[24],-0.491
same,glycan array binding signal (z-score),[25],-0.39
same,glycan array binding signal (z-score),[26],-0.113
